Laboratory results from the supplement of paper PMC10126150.
Values marked as one replicate rest on one cluster of the flow cell; about a third of the high ones do not repeat.

Tested on: ATP
Assay: switch fluorescence ratio, 500 uM ATP over buffer (Cy3 cluster intensity, sum of 5 cycles each) (fold (ratio)); higher = stronger signal-on switching upon ATP binding; sequences stand for … in TCGTCGGCAGCGTCAGATGTGTATAAGAGACAGTTTTTTTTTTTTTTTTTTTTTTTTT…TC
Details: aptamer strand: ATP DNA aptamer (quencher-CACCTGGGGGAGTATTGCGGAGGAAGG + anchor), 100 nM annealed; ATP concentration: 500 uM; one replicate
How it was run: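 After annealing to 100 nM quencher-labelled ATP aptamer, Cy3-labelled switching-strand clusters on a modified Illumina MiSeq flow-cell were imaged in selection buffer. A second image followed after 15 min with 500 uM ATP at 22 °C, and five such buffer/ATP cycles were done, each separated by NaOH stripping and re-annealing. The fluorescence ratio, averaged per switch-domain sequence, is summed target-cycle over summed buffer-cycle Cy3 intensity per cluster, with clusters outside 100-1000 RFU excluded.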
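Further: ATP exposure 15 min at 22 °C before imaging.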

**Q.** With ATGCCTTGCT as the sequence, how does the switch fluorescence ratio read?
**A.** 0.977

**Q.** For ATGCGCGGGG, which switch fluorescence ratio is on record?
**A.** 1.01

**Q.** With ATGCGGACGG as the sequence, how does the switch fluorescence ratio read?
**A.** 1.04

**Q.** For ATGCGGTTG, which switch fluorescence ratio is on record?
**A.** 0.978

**Q.** For ATGCGTCAGC, which switch fluorescence ratio is on record?
**A.** 1.05

**Q.** With ATGCGTGAGC as the sequence, how does the switch fluorescence ratio read?
**A.** 0.993

**Q.** Which switch fluorescence ratio does the source give for ATGCGTGTTG here?
**A.** 0.962

**Q.** How did the switch fluorescence ratio turn out when ATGCGTTCTC was run?
**A.** 1

**Q.** For ATGCTAGTT, which switch fluorescence ratio is on record?
**A.** 1.02

**Q.** ATGCTATATC was tested. Which switch fluorescence ratio did it give?
**A.** 1.17

**Q.** How did the switch fluorescence ratio turn out when ATGCTTGCCC was run?
**A.** 0.996

**Q.** Which switch fluorescence ratio does the source give for ATGCTTTGGA here?
**A.** 1.04

**Q.** ATGGAAGCCA was tested. Which switch fluorescence ratio did it give?
**A.** 0.998

**Q.** With ATGGAAGTAC as the sequence, how does the switch fluorescence ratio read?
**A.** 1.24

**Q.** ATGGACCCTG was tested. Which switch fluorescence ratio did it give?
**A.** 0.978

**Q.** For ATGGACGACC, which switch fluorescence ratio is on record?
**A.** 1.07

**Q.** Which switch fluorescence ratio does the source give for ATGGACGTTA here?
**A.** 1.11

**Q.** With ATGGACTAGA as the sequence, how does the switch fluorescence ratio read?
**A.** 1.05

**Q.** Which switch fluorescence ratio does the source give for ATGGACTTTT here?
**A.** 0.994

**Q.** How did the switch fluorescence ratio turn out when ATGGAGAG was run?
**A.** 1.05

**Q.** ATGGAGATTG was tested. Which switch fluorescence ratio did it give?
**A.** 1

**Q.** Which switch fluorescence ratio does the source give for ATGGAGGGAG here?
**A.** 0.969

**Q.** How did the switch fluorescence ratio turn out when ATGGAGTCGC was run?
**A.** 1.02

**Q.** Which switch fluorescence ratio does the source give for ATGGATAACC here?
**A.** 1

**Q.** How did the switch fluorescence ratio turn out when ATGGATACCC was run?
**A.** 1.02

**Q.** Which switch fluorescence ratio does the source give for ATGGATCGTT here?
**A.** 0.975

**Q.** Which switch fluorescence ratio does the source give for ATGGATCT here?
**A.** 0.956

**Q.** ATGGATTATG was tested. Which switch fluorescence ratio did it give?
**A.** 0.989

**Q.** ATGGCATGG was tested. Which switch fluorescence ratio did it give?
**A.** 1.04

**Q.** With ATGGCGAT as the sequence, how does the switch fluorescence ratio read?
**A.** 1.01

**Q.** How did the switch fluorescence ratio turn out when ATGGCGCAAG was run?
**A.** 0.987

**Q.** For ATGGCTTAAT, which switch fluorescence ratio is on record?
**A.** 1.02

**Q.** Which switch fluorescence ratio does the source give for ATGGGAATGC here?
**A.** 1.17

**Q.** With ATGGGAGCAT as the sequence, how does the switch fluorescence ratio read?
**A.** 1.04

**Q.** Which switch fluorescence ratio does the source give for ATGGGAGCGT here?
**A.** 1.02

**Q.** For ATGGGAGGA, which switch fluorescence ratio is on record?
**A.** 0.948

**Q.** ATGGGCCCCA was tested. Which switch fluorescence ratio did it give?
**A.** 1.01

**Q.** How did the switch fluorescence ratio turn out when ATGGGTGCAT was run?
**A.** 1.02

**Q.** How did the switch fluorescence ratio turn out when ATGGGTGGGC was run?
**A.** 1.01

**Q.** With ATGGGTTGC as the sequence, how does the switch fluorescence ratio read?
**A.** 1.01

**Q.** How did the switch fluorescence ratio turn out when ATGGTAGGCA was run?
**A.** 1.01

**Q.** Which switch fluorescence ratio does the source give for ATGGTAGTTA here?
**A.** 0.981

**Q.** How did the switch fluorescence ratio turn out when ATGGTCAAA was run?
**A.** 0.989

**Q.** ATGGTCCTTT was tested. Which switch fluorescence ratio did it give?
**A.** 1.02

**Q.** With ATGGTCGGAC as the sequence, how does the switch fluorescence ratio read?
**A.** 0.962

**Q.** For ATGGTCGGGC, which switch fluorescence ratio is on record?
**A.** 1.03

**Q.** ATGGTGGAG was tested. Which switch fluorescence ratio did it give?
**A.** 0.979

**Q.** For ATGGTGGCGT, which switch fluorescence ratio is on record?
**A.** 1.01

**Q.** Which switch fluorescence ratio does the source give for ATGGTGTGGT here?
**A.** 0.995

**Q.** How did the switch fluorescence ratio turn out when ATGTAACGAT was run?
**A.** 1.03

**Q.** How did the switch fluorescence ratio turn out when ATGTACCTTG was run?
**A.** 1.08

**Q.** For ATGTAGACAA, which switch fluorescence ratio is on record?
**A.** 1.05

**Q.** ATGTAGCCG was tested. Which switch fluorescence ratio did it give?
**A.** 1.01

**Q.** With ATGTAGCT as the sequence, how does the switch fluorescence ratio read?
**A.** 1.01

**Q.** ATGTAGGTAG was tested. Which switch fluorescence ratio did it give?
**A.** 0.997

**Q.** How did the switch fluorescence ratio turn out when ATGTAGGTCT was run?
**A.** 1.01

**Q.** For ATGTAGTTTC, which switch fluorescence ratio is on record?
**A.** 0.972

**Q.** With ATGTATACTG as the sequence, how does the switch fluorescence ratio read?
**A.** 1

**Q.** For ATGTCAGCCC, which switch fluorescence ratio is on record?
**A.** 0.946

**Q.** ATGTCGCAA was tested. Which switch fluorescence ratio did it give?
**A.** 1.87

**Q.** With ATGTCGCATG as the sequence, how does the switch fluorescence ratio read?
**A.** 1.04

**Q.** Which switch fluorescence ratio does the source give for ATGTCTACGC here?
**A.** 1.13

**Q.** ATGTCTTAGC was tested. Which switch fluorescence ratio did it give?
**A.** 0.991

**Q.** ATGTCTTCTC was tested. Which switch fluorescence ratio did it give?
**A.** 0.998

**Q.** For ATGTGAGCAC, which switch fluorescence ratio is on record?
**A.** 1.05

**Q.** For ATGTGAGCCG, which switch fluorescence ratio is on record?
**A.** 0.941

**Q.** With ATGTGGAGCG as the sequence, how does the switch fluorescence ratio read?
**A.** 1.03

**Q.** For ATGTGGCAAC, which switch fluorescence ratio is on record?
**A.** 1

**Q.** Which switch fluorescence ratio does the source give for ATGTGGGCCA here?
**A.** 0.966

**Q.** Which switch fluorescence ratio does the source give for ATGTGGTGTA here?
**A.** 0.964

**Q.** ATGTGTAAGC was tested. Which switch fluorescence ratio did it give?
**A.** 0.966

**Q.** With ATGTGTATGC as the sequence, how does the switch fluorescence ratio read?
**A.** 1

**Q.** How did the switch fluorescence ratio turn out when ATGTGTCCAC was run?
**A.** 0.995

**Q.** How did the switch fluorescence ratio turn out when ATGTGTGGAC was run?
**A.** 1.04

**Q.** For ATGTGTTAAT, which switch fluorescence ratio is on record?
**A.** 1.04

**Q.** For ATGTGTTCCT, which switch fluorescence ratio is on record?
**A.** 1.03

**Q.** How did the switch fluorescence ratio turn out when ATGTGTTGGC was run?
**A.** 0.969

**Q.** For ATGTTAATGG, which switch fluorescence ratio is on record?
**A.** 0.996

**Q.** How did the switch fluorescence ratio turn out when ATGTTAGTT was run?
**A.** 1.02

**Q.** ATGTTATATC was tested. Which switch fluorescence ratio did it give?
**A.** 1.05

**Q.** Which switch fluorescence ratio does the source give for ATGTTCAGCT here?
**A.** 1.03

**Q.** For ATGTTCTTAG, which switch fluorescence ratio is on record?
**A.** 1.03

**Q.** ATGTTGCATC was tested. Which switch fluorescence ratio did it give?
**A.** 1.03

**Q.** For ATGTTGGACC, which switch fluorescence ratio is on record?
**A.** 0.957

**Q.** For ATGTTGGCTA, which switch fluorescence ratio is on record?
**A.** 1.04

**Q.** With ATGTTTTGAT as the sequence, how does the switch fluorescence ratio read?
**A.** 1.02

**Q.** How did the switch fluorescence ratio turn out when ATTAAAGATG was run?
**A.** 0.991

**Q.** Which switch fluorescence ratio does the source give for ATTAAATAGG here?
**A.** 0.975

**Q.** ATTAACCGAT was tested. Which switch fluorescence ratio did it give?
**A.** 1.04

**Q.** For ATTAAGCTAT, which switch fluorescence ratio is on record?
**A.** 1.07

**Q.** ATTAAGTGCG was tested. Which switch fluorescence ratio did it give?
**A.** 0.985

**Q.** Which switch fluorescence ratio does the source give for ATTAAGTGGT here?
**A.** 0.952

**Q.** Which switch fluorescence ratio does the source give for ATTAATCTGT here?
**A.** 1

**Q.** How did the switch fluorescence ratio turn out when ATTAATTTCA was run?
**A.** 1.01

**Q.** ATTACACCTG was tested. Which switch fluorescence ratio did it give?
**A.** 1.06

**Q.** ATTACAGGCT was tested. Which switch fluorescence ratio did it give?
**A.** 1

**Q.** With ATTACATACA as the sequence, how does the switch fluorescence ratio read?
**A.** 1.39

**Q.** For ATTACCTAT, which switch fluorescence ratio is on record?
**A.** 1.03

**Q.** With ATTACGAGCT as the sequence, how does the switch fluorescence ratio read?
**A.** 1.02

**Q.** For ATTACGGGTC, which switch fluorescence ratio is on record?
**A.** 0.961

**Q.** How did the switch fluorescence ratio turn out when ATTACTGACG was run?
**A.** 1.02
